PubChem BioAssay AID2546 (National Center for Advancing Translational Sciences (NCATS), 2010)
Screen size: about 310,000 compounds; about 11,000 (3.5%) were called active. The inconclusive results got no clear call from the source; some entries with a clear call stand among them for comparison. Calls follow the shape of the dose curve; as a rule, active = well fitted inhibition curve with a large enough effect; inconclusive = small, poorly fitted or top-dose-only effect, or effect the other way; inactive = flat fitted curve, though single readings scatter. No potency is given beside an inconclusive call; the fits are too rough.

test: VP16 counterscreen qHTS for inhibitors of ROR gamma transcriptional activity; conditions: Drosophila S2 Gal4-VP16 UAS-luciferase, luminescence, 20 h; series mostly up to 53.6 µM;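 also: Gal4-VP16 expression switched on by copper sulfate through the metallothionein promoter; nearly all actives have a fitted effect of over 50% in size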
Potency is read from the fitted curve at half-maximal effect; tags tell the direction and shape of the fitted curve.

| SMILES | Potency |
| --- | --- |
| CC(C)(C)C(=O)N1CCC[C@H]1C(O)(c1ccccc1)c1ccccc1 | active: 22.4 µM |
| CCOC(=O)c1c(CSc2ccc(C)cc2)oc2ccc(O)cc12 | inconclusive [inhibitor, single point] |
| O=C1CC2(CCN(C(=O)C(=O)c3c[nH]c4ccccc34)CC2)Oc2ccccc21 | inconclusive [inhibitor, single point] |
| O=C(N/N=C/c1ccc[nH]1)c1ccc2c(c1)OCO2 | inactive |
| Cn1nc(C(F)(F)F)c(C#N)c1N1CCN(c2ccccc2)CC1 | inconclusive [inhibitor, full curve, poor fit] |
| O=C(NCCSCc1ccco1)Nc1ccc(Cl)cc1 | inconclusive [activator, single point] |
| N#Cc1cc2c([nH]c1=S)CCCCCC2 | active: 15.8 µM |
| CC1=NN(C(=O)Cc2ccc(C)cc2)C(O)(c2cccnc2)C1 (stereo not given) | inconclusive [inhibitor, single point] |
| O=c1cnc2cncnc2n1Cc1ccc(F)cc1 | inactive |
| COc1cccc(CN2CCN(C(=O)c3oc4c(F)cccc4c3C)CC2=O)c1 | inactive |
| O=C(CS(=O)(=O)c1cn(Cc2ccccc2Cl)c2ccccc12)N1CCOCC1 | inactive |
| COc1ccc(N2C(=O)CC(n3c(CCCCO)nc4ccccc43)C2=O)cc1 (stereo not given) | inactive |
| O=C(Cn1ncc2c(=O)oc3ccccc3c21)NCC1COc2ccccc2O1 (stereo not given) | inactive |
| COc1ccc(-c2c(C#Cc3ccccc3)c3ccccc3n2C)cc1 | inconclusive [inhibitor, full curve] |
| Nc1c(C(=O)Nc2ccc(F)cc2)sc(=S)n1-c1ccccc1F | inactive |
| O=c1c2oc3ccccc3c2[nH]c(=S)n1-c1ccc(F)cc1 | inconclusive [inhibitor, partial curve] |
| CCC(C)c1ccc(C(C)NC(=S)NCc2ccc(F)cc2)cc1 (stereo not given) | active: 5.01 µM |
| COc1cc2nc(Nc3ccc(F)cc3)nc(N)c2cc1OC | inactive |
| CCC(C)(C)OC | inconclusive [activator, single point] |
| COc1ccc(-c2noc(CN3CCCCC3c3nccn3C)n2)cc1 (stereo not given) | inconclusive [inhibitor, partial curve] |
| CC(C)(C)c1cn(-c2ccc(F)cc2)c(=S)[nH]1 | active: 10 µM |
| Oc1ccc(Br)cc1/C=N/Nc1ccccn1 | active: 10 µM |
| COc1cccc(N2CCN(c3c4c(nc5ncnn35)CCC4)CC2)c1 | inconclusive [inhibitor, single point] |
| CCS(=O)(=O)Nc1cc(-c2nc3cccnc3s2)ccc1C | inactive |
| Cc1ccc(C(=O)NC(NC(=S)Nc2ccc(S(N)(=O)=O)cc2)C(Cl)(Cl)Cl)cc1 (stereo not given) | inconclusive [activator, single point] |

| SMILES | Potency |
| --- | --- |
| CCOC(=O)C1(CCCc2ccccc2)CCN(C(=O)CCCn2cncn2)CC1 | inconclusive [activator, single point] |
| COc1ccc(/C(C)=N\NC(=O)c2ccc(-c3ccccc3)cc2)c(F)c1 | inconclusive [inhibitor, partial curve] |
| S=c1[nH]ncn1/N=C/c1ccccc1 | inconclusive [inhibitor, single point] |
| Cc1ccccc1NCC(=O)N/N=C/C(Br)=C/c1ccccc1 | inconclusive [inhibitor, full curve, poor fit] |
| N#CC(C(=O)C1CCCCC1)c1nc2ccccc2[nH]1 (stereo not given) | active: 7.94 µM |
| O=C(COc1ccc(Cl)cc1)N/N=C/c1cccc2cccnc12 | active: 10 µM |
| COc1ccc(N2CCN(Cc3nc4c(c(=O)n(C)c(=O)n4C)n3C(C)C(C)=O)CC2)cc1 (stereo not given) | inconclusive [inhibitor, full curve, poor fit] |
| O=S(=O)(Nc1ccccc1)c1ccc(-c2csnn2)cc1 | inconclusive [inhibitor, single point] |
| Cc1ccc(S(=O)(=O)N(C)c2cc(S(=O)(=O)N3CCC(C)CC3)c(C)cc2C)cc1 | inconclusive [inhibitor, single point] |
| CCOc1ccc(C(=O)NC(=S)Nc2cccnc2)cc1 | inactive |
| COc1ccccc1NC(=O)C1=C(C)Nc2nc(-c3cccs3)nn2C1c1cccnc1 (stereo not given) | inactive |
| Cc1ccc(-n2c(SCC(N)=O)nc3c(c2=O)C2(CCCC2)Cc2ccccc2-3)cc1 | inconclusive [inhibitor, single point] |
| O=C1/C(=C/c2ccco2)CCc2ccccc21 | inconclusive [inhibitor, full curve] |
| O=C1C(=O)N(CCCN2CCOCC2)C(c2cccs2)/C1=C(/O)c1ccc2c(c1)OCO2 (stereo not given) | inactive |
| Cc1nc(=S)c2ccccc2[nH]1 | inconclusive [inhibitor, single point] |
| CC(/C=N/Nc1nc(C)cc(=O)[nH]1)=C\c1ccccc1 | inconclusive [activator, single point] |
| Cc1ccc(/C=N/NC(=O)NC2CCCCC2)o1 | inactive |
| COc1ccccc1NC(=S)c1ccccc1 | inconclusive [inhibitor, single point] |
| Cc1ccc(N2C(=O)c3ccc(C(=O)N4CCN(c5cccc(C)c5C)CC4)cc3C2=O)cc1 | active: 20 µM |
| CCOC(=O)CC1CCCCN1C(=O)CCCn1nnnc1CN1CCC(C)CC1 (stereo not given) | inactive |
| COc1cccc(/C=N/NC(=O)C(=O)NCc2cccnc2)c1O | inconclusive [inhibitor, single point] |
| CCc1ccc(/C=C2/SC(=S)N(CCCC(=O)Nc3ccccc3C(=O)O)C2=O)cc1 | inactive |
| Cc1ccccc1N(CC(=O)NC1CCCCC1)C(=O)CCC(=O)Nc1nccs1 | inactive |
| Cc1ccccc1C(=O)N/N=C1\SCC(=O)N1Cc1ccco1 | inconclusive [inhibitor, single point] |
| CC1Cc2ccccc2N1C(=O)CSc1nnc2sc3ccccc3n12 (stereo not given) | inconclusive [inhibitor, single point] |
